{"source": "paper PMC4336329", "about": "(PLoS ONE, 2015)", "note": "Among all 310,000 compounds or so, about 2,200 (0.71%) showed an effect of 50% or more. The effect is printed as a negative number. This is one part of the list.", "data": [{"biological_target": "human ether-à-go-go-related gene (hERG) potassium channel (human, UniProt Q12809)", "sequence (Q12809 whole entry, looked up)": "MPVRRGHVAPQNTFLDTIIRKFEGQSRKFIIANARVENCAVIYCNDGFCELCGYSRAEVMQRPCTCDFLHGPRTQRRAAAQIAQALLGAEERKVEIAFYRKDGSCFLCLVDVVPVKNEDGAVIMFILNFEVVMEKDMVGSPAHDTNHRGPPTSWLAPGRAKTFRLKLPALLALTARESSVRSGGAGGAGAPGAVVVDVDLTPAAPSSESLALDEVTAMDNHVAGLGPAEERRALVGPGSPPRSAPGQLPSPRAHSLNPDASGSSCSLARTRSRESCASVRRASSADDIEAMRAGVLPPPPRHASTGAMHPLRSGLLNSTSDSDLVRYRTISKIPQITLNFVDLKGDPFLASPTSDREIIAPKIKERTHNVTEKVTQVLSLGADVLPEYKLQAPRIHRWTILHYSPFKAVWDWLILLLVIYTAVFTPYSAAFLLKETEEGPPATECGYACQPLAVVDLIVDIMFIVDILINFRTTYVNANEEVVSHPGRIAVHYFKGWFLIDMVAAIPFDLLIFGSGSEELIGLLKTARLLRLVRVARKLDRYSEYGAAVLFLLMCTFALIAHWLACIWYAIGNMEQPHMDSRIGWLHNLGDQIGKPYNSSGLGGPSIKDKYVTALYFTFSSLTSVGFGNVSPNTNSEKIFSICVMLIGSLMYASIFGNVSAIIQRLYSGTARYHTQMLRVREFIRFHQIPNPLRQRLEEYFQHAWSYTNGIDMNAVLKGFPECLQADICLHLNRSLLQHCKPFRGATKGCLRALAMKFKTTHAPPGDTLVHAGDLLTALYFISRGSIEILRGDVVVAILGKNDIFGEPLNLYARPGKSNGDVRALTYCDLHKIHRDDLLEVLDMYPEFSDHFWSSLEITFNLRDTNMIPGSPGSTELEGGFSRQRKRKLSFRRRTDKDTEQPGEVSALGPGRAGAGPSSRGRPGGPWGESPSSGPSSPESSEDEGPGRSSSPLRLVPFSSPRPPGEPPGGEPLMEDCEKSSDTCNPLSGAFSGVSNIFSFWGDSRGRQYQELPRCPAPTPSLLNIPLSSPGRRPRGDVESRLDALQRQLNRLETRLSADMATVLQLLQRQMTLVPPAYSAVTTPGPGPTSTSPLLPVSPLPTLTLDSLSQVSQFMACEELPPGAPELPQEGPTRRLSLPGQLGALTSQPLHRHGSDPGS", "assay": "primary screen, population patch clamp on CHO cells stably expressing hERG", "units": {"hERG current change (%, negative = inhibition) at 1uM": "%"}, "values": [{"smiles": "CCC1CCc2sc(C(=O)NCC(c3ccc(OC)cc3)N3CCCC3)cc2C1", "note": "(stereo not shown)", "hERG current change (%, negative = inhibition) at 1uM": -11.2}, {"smiles": "Nc1ccc(-n2nncc2-c2ccco2)cc1", "hERG current change (%, negative = inhibition) at 1uM": -13.2}, {"smiles": "Cc1cccc(C)c1NC(=O)NC1(C(=O)NCCCN2CCOCC2)CCCCC1", "hERG current change (%, negative = inhibition) at 1uM": 12.6}, {"smiles": "COc1ccc(NC(=O)Nc2ccccc2SC)cc1", "hERG current change (%, negative = inhibition) at 1uM": 11.1}, {"smiles": "Cc1ccc(C)c(OCCCC(=O)NC2CCCCC2)c1", "hERG current change (%, negative = inhibition) at 1uM": 7.33}, {"smiles": "CC(=O)Nc1ccc2c3c(cccc13)CC2", "hERG current change (%, negative = inhibition) at 1uM": 11.3}, {"smiles": "CC(C)C[C@H](NC(=O)[C@@H]1Cc2ccccc2CN1)C(=O)Nc1ccc(C(C)C)cc1", "hERG current change (%, negative = inhibition) at 1uM": 12.8}, {"smiles": "CSc1nccn1CC(=O)Nc1ccc(F)cc1", "hERG current change (%, negative = inhibition) at 1uM": 0.97}, {"smiles": "COc1ccc(C(C)=O)cc1COC(=O)c1ccc2c(c1)OCCO2", "hERG current change (%, negative = inhibition) at 1uM": 18.1}, {"smiles": "COc1ccc(CCNC(=O)c2cc(-c3ccccc3)c(N3CCOCC3)s2)c(OC)c1OC", "hERG current change (%, negative = inhibition) at 1uM": 9.16}, {"smiles": "O=C(Nc1ccc(-c2csc(Nc3ccccc3)n2)cc1)c1cc([N+](=O)[O-])cc(C(F)(F)F)c1", "hERG current change (%, negative = inhibition) at 1uM": 4.72}, {"smiles": "COc1ccc(C(=O)CCN2CCC(C)CC2)cc1.Cl", "hERG current change (%, negative = inhibition) at 1uM": 0.807}, {"smiles": "COc1cccc(C2C(C#N)=C(N)OC3=C2C(=O)CC(c2ccco2)C3)c1OCc1ccc(F)cc1", "note": "(stereo not shown)", "hERG current change (%, negative = inhibition) at 1uM": 7.29}, {"smiles": "NC(=O)CNC(=O)c1cccc(Cl)c1", "hERG current change (%, negative = inhibition) at 1uM": 12.7}, {"smiles": "Cc1nc2cc(-c3ccc(Cl)cc3)nn2c(C)c1CCC(=O)NCc1ccco1", "hERG current change (%, negative = inhibition) at 1uM": 8.63}, {"smiles": "O=c1oc2ccccc2c2oc3cc(O)c(O)cc3c12", "hERG current change (%, negative = inhibition) at 1uM": -3.94}, {"smiles": "Cc1csc2ncc(C(=O)N3c4ccccc4CC3C)c(=O)n12", "note": "(stereo not shown)", "hERG current change (%, negative = inhibition) at 1uM": 12.6}, {"smiles": "Cc1ccc2oc(=O)c(/C=C(\\O)c3cccs3)nc2c1", "hERG current change (%, negative = inhibition) at 1uM": 13}, {"smiles": "Cc1cc(C)c2c(-n3cccc3)nn(C)c2n1", "hERG current change (%, negative = inhibition) at 1uM": 12.6}, {"smiles": "CC1CN(C(=O)COC(=O)c2c(Cl)cccc2Cl)CC(C)O1", "note": "(stereo not shown)", "hERG current change (%, negative = inhibition) at 1uM": 10.4}, {"smiles": "Cc1ccc(S(=O)(=O)Cc2ccc(C(=O)O)o2)cc1", "hERG current change (%, negative = inhibition) at 1uM": 1.29}, {"smiles": "CC(C)(C)N1CC(c2nc3ccccc3n2Cc2ccc(F)cc2)CC1=O", "note": "(stereo not shown)", "hERG current change (%, negative = inhibition) at 1uM": -6.39}, {"smiles": "COc1ccccc1C(O)(c1ccccc1)C(CN1CCOCC1)c1ccccc1.Cl", "note": "(stereo not shown)", "hERG current change (%, negative = inhibition) at 1uM": 14.8}, {"smiles": "COc1ccc(OC)c2sc(N3CCN(c4ccccc4)CC3)nc12", "hERG current change (%, negative = inhibition) at 1uM": 0.951}, {"smiles": "Cc1ccc(C(=O)NC(=S)NCc2cccnc2)cc1", "hERG current change (%, negative = inhibition) at 1uM": 2.07}, {"smiles": "Nc1ncnc(Nc2c(F)cccc2F)n1", "hERG current change (%, negative = inhibition) at 1uM": 7.67}, {"smiles": "Cc1ccc(C(=O)CSc2nnc(CNc3ccc(F)cc3)o2)cc1", "hERG current change (%, negative = inhibition) at 1uM": -2.46}, {"smiles": "O=S(=O)(NCc1cccs1)NCc1ccccc1F", "hERG current change (%, negative = inhibition) at 1uM": 5.55}, {"smiles": "CCC(=O)Nc1c(-c2ccccc2)c(=O)c2ccccc2n1C", "hERG current change (%, negative = inhibition) at 1uM": 13.3}, {"smiles": "O=C(Cn1cc(C(F)(F)F)ccc1=O)N/N=C/c1ccc(Cl)cc1", "hERG current change (%, negative = inhibition) at 1uM": 7.47}, {"smiles": "Cc1onc(-c2ccccc2)c1C(=O)Nc1nncs1", "hERG current change (%, negative = inhibition) at 1uM": 15.9}, {"smiles": "CCc1nc2ccccc2n1CC(=O)N(C(C)CC)C1CCS(=O)(=O)C1", "note": "(stereo not shown)", "hERG current change (%, negative = inhibition) at 1uM": 10.5}, {"smiles": "CCOC(=O)CSc1nc(-c2ccccc2)ns1", "hERG current change (%, negative = inhibition) at 1uM": 8.79}, {"smiles": "CCOC(=O)CSc1nnc(-c2ccoc2C)n1-c1ccc(OCC)cc1", "hERG current change (%, negative = inhibition) at 1uM": -22.9}, {"smiles": "CC(Oc1cccc(Cl)c1)C(=O)Nc1cc(S(=O)(=O)N2CCOCC2)ccc1N1CCCC1", "note": "(stereo not shown)", "hERG current change (%, negative = inhibition) at 1uM": -1.02}, {"smiles": "Cc1cc(NC(=O)C(C)SCC(=O)Nc2ccccc2N2CCCCC2)no1", "note": "(stereo not shown)", "hERG current change (%, negative = inhibition) at 1uM": 20}, {"smiles": "COC(=O)c1ccc(CSc2ncnc3ccccc23)o1", "hERG current change (%, negative = inhibition) at 1uM": 11.9}, {"smiles": "CC(C)C(c1nnnn1Cc1ccc(F)cc1)N1CCN(Cc2ccc3c(c2)OCO3)CC1", "note": "(stereo not shown)", "hERG current change (%, negative = inhibition) at 1uM": -2.47}, {"smiles": "CCN(c1cccc(C)c1)S(=O)(=O)c1c(C)[nH]c(C)c1C(=O)N1CCCCC1", "hERG current change (%, negative = inhibition) at 1uM": 11.1}, {"smiles": "C/C(=N\\NC(=O)C(c1ccncc1)N1CCOCC1)c1ccc(Br)cc1", "note": "(stereo not shown)", "hERG current change (%, negative = inhibition) at 1uM": 5.99}, {"smiles": "CCOC(=O)c1c(/N=C/c2cc([N+](=O)[O-])ccc2O)sc(C)c1C", "hERG current change (%, negative = inhibition) at 1uM": 11.4}, {"smiles": "COc1ccc(Nc2nc(N)nc(CSC(=S)N3CCCCC3)n2)cc1", "hERG current change (%, negative = inhibition) at 1uM": 13.7}, {"smiles": "COC(=O)c1cc(OC)c(OC)cc1NC(=O)c1csc(C)c1", "hERG current change (%, negative = inhibition) at 1uM": -0.691}, {"smiles": "CC(=O)CCc1oc2ccc(C)cc2c1-c1ccccc1", "hERG current change (%, negative = inhibition) at 1uM": 4.78}, {"smiles": "Cc1nn(Cc2ccccc2)c(C)c1NC(=O)c1cccs1", "hERG current change (%, negative = inhibition) at 1uM": 14}, {"smiles": "Cc1cccc(C)c1N(CC(=O)NC1CCCCC1)C(=O)c1csnn1", "hERG current change (%, negative = inhibition) at 1uM": 14.8}, {"smiles": "O=C(CCNC(=O)c1ccc(Br)cc1)Nc1ccccc1N1CCCC1", "hERG current change (%, negative = inhibition) at 1uM": 12.5}, {"smiles": "O=C(CSc1nnc(SCc2cccc3ccccc23)s1)N/N=C/C=C/c1ccccc1[N+](=O)[O-]", "hERG current change (%, negative = inhibition) at 1uM": -9.84}, {"smiles": "COc1ccccc1/C=c1\\sc2nc(-c3ccco3)nn2c1=O", "hERG current change (%, negative = inhibition) at 1uM": 17.5}, {"smiles": "COc1ccc(/C=N/NC(=O)c2ccc3c(c2)NC(=O)C(C)(C)O3)cc1OC", "hERG current change (%, negative = inhibition) at 1uM": 9.42}, {"smiles": "O=C(Nc1ccncc1)c1c(Cl)cccc1Cl", "hERG current change (%, negative = inhibition) at 1uM": 15.6}, {"smiles": "Cc1ccc(S(=O)(=O)NCc2nc3ccccc3c(=O)n2N)cc1", "hERG current change (%, negative = inhibition) at 1uM": 2.51}, {"smiles": "Cc1csc(NC(=O)C(NC(=O)c2ccccc2F)C(C)C)n1", "note": "(stereo not shown)", "hERG current change (%, negative = inhibition) at 1uM": 0.516}, {"smiles": "Cc1ccc(-n2c(Cn3nc(C(F)(F)F)cc3C)n[nH]c2=S)cc1", "hERG current change (%, negative = inhibition) at 1uM": 17.3}, {"smiles": "COC(=O)Cc1ccc(N(Cc2ccccc2F)S(=O)(=O)c2ccc(Br)cc2)cc1", "hERG current change (%, negative = inhibition) at 1uM": 11.2}, {"smiles": "COC(=O)C(C(=O)Nc1ncccn1)C1CCCCCC1", "note": "(stereo not shown)", "hERG current change (%, negative = inhibition) at 1uM": -4.9}, {"smiles": "COc1ccc2nc(N3C(=O)CC(C(C)c4ccccc4)C3=O)sc2c1", "note": "(stereo not shown)", "hERG current change (%, negative = inhibition) at 1uM": -4.65}, {"smiles": "CC(=O)c1ccc(NC(=S)NC(=O)c2c(Cl)c(C)nn2C)cc1", "hERG current change (%, negative = inhibition) at 1uM": -0.492}]}]}
